Laboratory results taken from patent US20230218776A1, “ANTI-NTB-A ANTIBODIES AND RELATED COMPOSITIONS AND METHODS” (SEAGEN INC., priority 2015, published 2023).

Key:
MM.1R cells = assay: Disseminated multiple myeloma xenograft, MM.1R in NSG mice; format: in vivo
Protocol: (§1) NSG (NOD scid gamma; NOD.Cg-Prkdc^scid Il2rg^tmlWjl/SzJ) mice were implanted with 1 million MM.1R cells, per animal intravenously to generate a disseminated model of multiple myeloma. Five days after tumor cell implant, n=10 mice per treatment group were given a single intraperitoneal injection of h20F3ec-1910(2) PBD ADC or non-binding control hIgGec-1910(2) PBD ADC. PBD ADC dose levels examined were 333 μg/kg, 111 Ig/kg, and 37 μg/kg. Mice with advanced tumor burden were sacrificed upon showing symptoms of hind limb paralysis, cranial swelling, and/or moribundity.
NSG (NOD scid gamma; NOD.Cg-Prkdc^scid Il2rg^tm1Wjl/SzJ) mice were implanted with 1 million MM.1R cells per animal intravenously to generate a disseminated model of multiple myeloma. Five days after tumor cell implant, n=10 mice per treatment group were given a single intraperitoneal injection of h20F3-Auristatin2(8) ADC or non-binding control hIgG-Auristatin2(8) ADC. Auristatin2 ADC dose levels examined were 3.0 mg/kg and 1.0 mg/kg. Mice with advanced tumor burden were sacrificed upon showing symptoms of hind limb paralysis, cranial swelling, and/or moribundity.

Raji cell line = assay: Complement-dependent cytotoxicity (CDC), Sytox Green; format: cell-based; details: 0.02-50 μg/mL, human serum, 2 hours
Protocol: (§2) Complement-Dependent Cytotoxicity (CDC): Normal human T cells (All Cells, Alameda, Calif.) or cancer cell lines (ATCC, Manassas, Va.) were labelledlabeled with 5 μM Sytox Green (Life Technologies, Grand Island, N.Y.), then bound with serial a serial dose titrations of anti-human NTB-A h20F3 antibody or PBD dimer ADCies (0.02-50 μg/mL) in RPMI1640 media+1020% human serum (Complement Technology, Tyler, TX or Solomon Park Research Laboratories, Kirkland, Wash. Cells were incubated at 37° C., 5% CO2 for 2 hours, and fluorescence from lysed cells was measured with an Envision plate reader (Perkin Elmer, Waltham, Mass.). Data was expressed as a percentage of maximum cell lysis determined with a positive control of 1% TritonX-100-treated cells (Sigma, ST. Louis, Mo.).
(§3) Three cell types were used for analysis: normal human T cells, WIL2-S cells, and Raji cells. Expression of relevant receptors on each cell type is found in Table 7 and is indicated as number of receptor per cell.

WIL2-S cell line = assay: as above; format: cell-based; details: 0.02-50 μg/mL, human serum, 2 hours
Protocol: as §2, §3

Normal human T cells = assay: as above; format: cell-based; details: 0.02-50 μg/mL, human serum, 2 hours
Protocol: as §2, §3

EJM cells = assay: Disseminated multiple myeloma xenograft, EJM in NSG mice; format: in vivo; details: 333 μg/kg (single dose), intraperitoneal; n=10
Protocol: as §1, with “NOD.Cg-Prkdc^scid Il2rg^tm1Wjl/SzJ)” for “NOD.Cg-Prkdc^scid Il2rg^tmlWjl/SzJ)”, “with 10” for “with 1”, “million EJM cells” for “million MM.1R cells,”
(§4) NSG (NOD scid gamma; NOD.Cg-Prkdc^scid Il2rg^tm1Wjl/SzJ) mice were implanted with 10 million EJM cells per animal intravenously to generate a disseminated model of multiple myeloma. Five days after tumor cell implant, n=10 mice per treatment group were given a single intraperitoneal injection of either anti-NTB-A ADCs h20F3-vcMMAE(4), h20F3-Auristatin2(8), or non-binding control ADCs hIgG-vcMMAE(4) and hIgG-Auristatin2(8). ADC dose levels examined were 3.0 mg/kg, and 1.0 mg/kg. Mice with advanced tumor burden were sacrificed upon showing symptoms of hind limb paralysis, cranial swelling, and/or moribundity. […] The h20F3-Auristatin2(8) ADC produced 2/10 or 9/10 durable complete responses at the 1.0 mg/kg and 3.0 mg/kg dose levels, respectively.

U-266 cells = assay: Disseminated multiple myeloma xenograft, U-266 in NSG mice; format: in vivo; details: 111 Ig/kg (single dose), intraperitoneal; n=10
Protocol: as §1, with “NOD.Cg-Prkdc^scid Il2rg^tm1Wjl/SzJ)” for “NOD.Cg-Prkdc^scid Il2rg^tmlWjl/SzJ)”, “with 5” for “with 1”, “million U-266 cells” for “million MM.1R cells,”, “were” for “were 333 μg/kg,”, “Ig/kg, 56 μg/kg,” for “Ig/kg,”, “and 28” for “and 37”
as §4, with “implanted with 5 million U-266” for “implanted with 10 million EJM”, “5 million U-266 cells per” for “10 million EJM cells per”, “ADC produced 10/10 durable complete” for “ADC produced 2/10 or 9/10 durable complete”, “responses at both the 1.0” for “responses at the 1.0”, “mg/kg dose levels. […]” for “mg/kg dose levels, respectively.”

[1] = test system: Raji non-Hodgkin lymphoma cells; assay: Subcutaneous non-Hodgkin lymphoma xenograft, Raji in SCID mice; format: in vivo; details: n=6
Protocol: SCID (C.B-17/Sz-Prkd^scid) mice were implanted with 5 million Raji non-Hodgkin lymphoma cells per animal subcutaneously. When mean tumor volume reached 100 mm^3, n=6 mice per treatment group were given a single intraperitoneal injection of h20F3ec-1910(2) PBD ADC or control hIgGec-1910(2) PBD ADC. PBD ADC dose levels examined were 100 ug/kg, 50 ug/kg, and 25 ug/kg. Individual mice were sacrificed when subcutaneous Raji tumor volume reached 1,000 mm^3.

B1: h20F3ec-1910(2) (conjugate)
heavy: QIQLVQSGSELKKPGASVKVSCKASGYTFTNYGMNWVRQAPGQDLKWMGWINTYSGEPRYADDFKGRFVFSLDKSVNTAYLQISSLKAEDTAVYYCARDYGRWYFDVWGQGTTVTVSS[sequence of human IgG1 constant region with changes omitted]
light: QIVLSQSPATLSLSPGERATMSCRASSSVSHMHWYQQKPGQAPRPWIYATSNLASGVPARFSGSGSGTDYTLTISSLEPEDFAVYYCQQWSSTPRTFGGGTKVEIKRTVAAPSVFIFPPSDEQLKSGTASVVCLLNNFYPREAKVQWKVDNALQSGNSQESVTEQDSKDSTYSLSSTLTLSKADYEKHKVYACEVTHQGLSSPVTKSFNRGEC
difference versus control group (Mantel-Cox test) (MM.1R cells; 37 μg/kg versus control hIgGec-1910(2) ADC (333 μg/kg), P<0.0001): statistically significant difference
durable complete responses (MM.1R cells; all dose levels (333, 111, 37 μg/kg), single intraperitoneal dose, n=10): 10/10
CDC Maximum % Specific Cell Lysis (Raji cell line): 0.0 ± 0.0%
CDC Maximum % Specific Cell Lysis (WIL2-S cell line): 0.3 ± 0.0%
CDC Maximum % Specific Cell Lysis (Normal human T cells): 2.1 ± 3.0%
durable complete responses (EJM cells): 8/10
durable complete responses (U-266 cells): 9/10
tumor growth ([1]; 25 ug/kg single ip dose): tumor growth delay
durable complete responses ([1]; 50 ug/kg single ip dose): 4/6
durable complete responses ([1]; 100 ug/kg single ip dose): all mice
